Hit rate of the full screen: of about 310,000 compounds, about 2,200 (0.71%) showed an effect of 50% or more. Effects have a minus sign here. The list shows a part of the results. *1 amine or outer side, *2 acyl side, *3 side chain or, on linkers, in order; H or OH if unused. Where a SMILES comes first, the peptide text is derived from it. [ ]: non-standard residue; d: D form. ξ: configuration not given here. ξR = N=C(N)NCCCC(N)C(=O)O; ξF = NC(Cc1ccccc1)C(=O)O; CO = O=C([*:1])[*:2]

In the assay the target is human ether-à-go-go-related gene (hERG) potassium channel (human, UniProt Q12809). The experiment in a line: primary screen, population patch clamp on CHO cells stably expressing hERG.
human ether-à-go-go-related gene (hERG) potassium channel, sequence (Q12809 whole entry, looked up): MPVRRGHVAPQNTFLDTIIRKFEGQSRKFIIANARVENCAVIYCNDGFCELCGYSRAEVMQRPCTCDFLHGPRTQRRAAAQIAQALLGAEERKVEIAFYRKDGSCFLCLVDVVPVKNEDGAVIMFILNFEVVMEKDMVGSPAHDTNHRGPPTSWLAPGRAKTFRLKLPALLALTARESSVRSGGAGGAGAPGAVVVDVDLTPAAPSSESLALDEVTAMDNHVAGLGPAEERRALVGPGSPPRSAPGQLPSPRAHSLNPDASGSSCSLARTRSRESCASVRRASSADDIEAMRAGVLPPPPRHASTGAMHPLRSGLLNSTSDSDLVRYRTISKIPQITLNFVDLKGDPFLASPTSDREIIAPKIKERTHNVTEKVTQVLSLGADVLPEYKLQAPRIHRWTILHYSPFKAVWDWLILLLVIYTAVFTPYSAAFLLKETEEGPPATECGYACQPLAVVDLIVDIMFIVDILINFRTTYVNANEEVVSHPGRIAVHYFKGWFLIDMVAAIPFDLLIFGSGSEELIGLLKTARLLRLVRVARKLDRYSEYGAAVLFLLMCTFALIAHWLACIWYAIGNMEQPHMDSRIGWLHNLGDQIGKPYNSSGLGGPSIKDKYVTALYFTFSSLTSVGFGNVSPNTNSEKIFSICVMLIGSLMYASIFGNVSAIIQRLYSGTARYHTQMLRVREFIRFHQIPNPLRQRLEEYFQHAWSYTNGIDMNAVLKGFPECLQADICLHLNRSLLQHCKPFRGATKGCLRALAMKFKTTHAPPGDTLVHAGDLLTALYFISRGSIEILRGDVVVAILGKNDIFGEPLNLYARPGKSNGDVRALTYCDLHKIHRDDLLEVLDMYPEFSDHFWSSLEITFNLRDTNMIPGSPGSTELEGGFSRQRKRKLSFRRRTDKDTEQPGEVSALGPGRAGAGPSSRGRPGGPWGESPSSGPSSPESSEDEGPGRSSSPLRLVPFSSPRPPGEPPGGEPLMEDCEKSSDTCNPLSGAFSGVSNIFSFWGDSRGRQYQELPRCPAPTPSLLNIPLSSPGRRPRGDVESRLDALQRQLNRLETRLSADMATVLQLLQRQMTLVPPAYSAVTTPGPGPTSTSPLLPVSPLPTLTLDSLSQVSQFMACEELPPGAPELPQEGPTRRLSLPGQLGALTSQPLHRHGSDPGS
Consider `CN(C(=O)COC(=O)c1cc([N+](=O)[O-])ccc1Sc1ccccc1)C1CCS(=O)(=O)C1` (centres unmarked), for which the “hERG current change (%, negative = inhibition) at 1uM” value was determined as 20.6%.
In the case of `Cc1cccc(Cn2c(C(C)(C)C)cc3cccnc32)c1` it was -4.68%; in that of `NC(=O)CN1C(=O)C(O)(CC(=O)/C=C\c2ccc3c(c2)OCO3)c2ccccc21` (centres unmarked), 12.9%; in that of `C#CCn1c(O)c(N=NC(=O)CNC(=O)c2cccnc2)c2ccccc21`, 5.89%.
For the molecule `Cc1c(NC(=O)CN2C(=O)c3cccc4cccc2c34)c(=O)n(-c2ccccc2)n1C`, the “hERG current change (%, negative = inhibition) at 1uM” value amounted to 6.27%.
With `COc1ccc(C(=O)N2CCc3c([nH]c4ccccc34)C2C(F)(F)F)cc1` (centres unmarked) the figure was 12.1%; with `COc1ccc(-n2nnnc2-c2cccc(OC)c2)cc1`, -1.29%.
`CCOC(=O)/C(C#N)=C/C=C1/C=CC=CN1C`: the “hERG current change (%, negative = inhibition) at 1uM” value stood at 11%.
With `Cc1nc(Nc2ccncc2)c2oc3ccccc3c2n1` the figure was 4.59%; with `COc1cccc(/C=N/NC(=O)c2cccs2)c1`, 1.83%.
`Cn1cc(Cl)c(C(=O)Nc2nccs2)n1`: the “hERG current change (%, negative = inhibition) at 1uM” value is on record as 11.9%.
In the case of `Cc1ccc(NC(=O)CCSc2nnc(C)s2)cc1` it was 7.77%; in that of `CS(=O)(=O)N(CC(=O)N1CCCC1)c1cc(C(F)(F)F)ccc1Cl`, 10.5%.
In the case of `CCOC(=O)c1c(NC(=S)Nc2cccnc2)sc(C)c1C` it was 10.5%; in that of `CCN(CC(=O)NCc1ccc(F)cc1)C(=O)c1cc2ccccc2o1`, -20.9%.
In the case of `CCC1C(=O)CC(c2ccc([N+](=O)[O-])cc2)NC1c1ccc([N+](=O)[O-])cc1` (centres unmarked), the “hERG current change (%, negative = inhibition) at 1uM” value is given as -69.7%.
On to `Cc1ccc(N=Nc2cc(C)ccc2N)cc1`, for which the “hERG current change (%, negative = inhibition) at 1uM” value came out at 6.45%.
On to `CCCS(=O)(=O)Nc1ccc(-c2cn3c(n2)SCC3)cc1`, for which the “hERG current change (%, negative = inhibition) at 1uM” value is listed as 12.5%.
Regarding `O=C(COC(=O)c1cncc(Br)c1)Nc1ccc(N2CCCCC2)cc1`, the “hERG current change (%, negative = inhibition) at 1uM” value turned out to be 6.82%.
Regarding `CS/C(=N\S(=O)(=O)c1cccs1)Nc1cccc(Cl)c1C`, the “hERG current change (%, negative = inhibition) at 1uM” value was determined as 10.3%.
With `Cl.OC(COc1ccccc1)CN1CCC(Cc2ccccc2)CC1` (centres unmarked) the figure was -78%; with `CCN(CC)CCN(C(=O)CCS(=O)(=O)c1ccccc1)c1nc2c(C)cc(C)cc2s1.Cl`, 5.59%; with `O=C(COc1ccc(F)cc1Cl)Nc1ccccc1C(=O)N1CCCCC1`, 8.94%.
Turning to `COc1ccc(/C=N/NC(=O)c2ccccc2NC(=O)c2ccco2)c(OC)c1`, the “hERG current change (%, negative = inhibition) at 1uM” value is listed as 14.4%.
For `CC1C(=O)Nc2ccccc2N1C(=O)C1CC1` (centres unmarked), the “hERG current change (%, negative = inhibition) at 1uM” value is listed as -3.82%.
With `CCCCCCCNC(=O)C1(CC2CC(c3cccc(Br)c3)=NO2)CCN(C(=O)c2cc(OCC)c(OCC)c(OCC)c2)CC1` (centres unmarked) the figure was 13.5%; with `O=C(c1cccc(Br)c1)N1CCN(C2=NS(=O)(=O)c3ccccc32)CC1`, -26%.
With `CC(C)[C@H](NC(=O)[C@H](CCCN=C(N)N)NC(=O)NC(Cc1ccccc1)C(=O)O)C(=O)NC(C=O)CCCN=C(N)N` (stereo partly drawn) ({ξF-CO}-Arg-Val-[ξR]-aldehyde) the figure was 14.1%; with `CCOC(=O)N1CCC(NC(=O)c2cc3c(C)nc4ccccc4c3o2)CC1`, -0.501%; with `CC1(C)CC(=O)C2=C(C1)NC(=S)C(C#N)C21CCCCC1` (centres unmarked), 10.1%.
With `CCOC(=O)c1ccc2ncc(C(=O)OCC)c(NCCN(C)C)c2c1` the figure was -19.3%; with `CCCCN1CC(=O)N2[C@H](c3ccc(Cl)cc3)[C@@H]3C(=O)N(CC)C(=O)[C@@H]3[C@]2(Cc2ccccc2)C1=O`, -18.7%.
`CCOC(=O)C(C)(C)N(Cc1cccc(C)c1)S(=O)(=O)c1cccc([N+](=O)[O-])c1`: the “hERG current change (%, negative = inhibition) at 1uM” value was determined as 13.3%.
On to `NC(=O)c1cc(NC(=O)c2cc(Br)c(Br)s2)cc(C(N)=O)c1`, for which the “hERG current change (%, negative = inhibition) at 1uM” value came to 10.2%.
Consider `COc1ccc(-c2cc(C(=O)Nc3ccc(S(=O)(=O)Nc4ncccn4)cc3)c3ccccc3n2)cc1`, for which the “hERG current change (%, negative = inhibition) at 1uM” value is on record as 5.65%.
In the case of `O=C(c1cc([N+](=O)[O-])cc([N+](=O)[O-])c1)N1CCN(C(=O)c2ccco2)CC1` it was -30.6%; in that of `CCN(CC(=O)Nc1c(F)cccc1F)C(=O)/C=C/c1ccc(Br)s1`, -15%; in that of `NNC(=O)c1oc2nc(-c3ccco3)cc(-c3ccco3)c2c1N`, 14.7%.
In the case of `CCOC(=O)N1CCN(C(=S)NC(=O)c2c(-c3c(Cl)cccc3Cl)noc2C)CC1` it was 2.45%; in that of `Cc1ccc2c(C)c(C(=O)N3CCCCC3CO)oc2c1C` (centres unmarked), 14.6%.
As to `COc1cc(/C=N\Nc2nc3ccccc3o2)cc(OC)c1OC`, the “hERG current change (%, negative = inhibition) at 1uM” value was determined as 7.62%.
With `CC(C)CC1Nc2ccc(C(=O)NCc3ccc4c(c3)OCO4)cc2NC1=O` (centres unmarked) the figure was 4.29%; with `N#Cc1c(Cl)cccc1Oc1ccc(S(=O)(=O)Nc2ccccc2)cc1`, 10.9%; with `Cc1ccc(N)cc1CN1CCCC1=O`, 4.66%.
With `CCc1nnc(NC(=O)c2cccc(S(=O)(=O)N3CCc4ccccc43)c2)s1` the figure was -6.24%; with `COc1cc(C(c2c(C)[nH][nH]c2=O)c2c(C)[nH][nH]c2=O)ccc1OS(=O)(=O)c1ccc(C)cc1`, 11.3%; with `C=CCOC(=O)C1=C[C@H](c2ccccc2)[C@@H](CCCO)[C@H](OCC)O1`, 8.79%.
For `Cc1ccc(-c2nc(C)sc2CC(=O)O)cc1`, the “hERG current change (%, negative = inhibition) at 1uM” value is reported as 12.2%.
In the case of `Cc1ccccc1/C=N/N=C1/NC(=O)CCS1` it was 7.95%; in that of `N#CC1(C#N)CC(C=O)=C(N)C1(C#N)CC(=O)C12CC3CC(CC(C3)C1)C2` (centres unmarked), 14.2%; in that of `CCc1cc(=O)oc2c3c(cc(OCC(=O)NCCC(=O)O)c12)OC(C)(C)CC3`, 17.4%.
Turning to `Cc1cc(C)c2nc(NCc3ccccc3O)sc2c1`, the “hERG current change (%, negative = inhibition) at 1uM” value is reported as 12.8%.
Consider `C(=N\n1cnnc1)/c1ccc(N2CCOCC2)s1`, for which the “hERG current change (%, negative = inhibition) at 1uM” value is 6.52%.
In the case of `CN(C)/C=C(\c1cnc(Cl)s1)S(=O)(=O)c1ccccc1` it was 20.4%.
Consider `O=C(CSc1ccccc1C(=O)O)Nc1ccc2c(c1)OCO2`, for which the “hERG current change (%, negative = inhibition) at 1uM” value was found to be 1.97%.
On to `Cc1ccc(C(C)(C)C)c(OCCOCCN2CCCC2)c1`, for which the “hERG current change (%, negative = inhibition) at 1uM” value is on record as 6.49%.
With `CN1CCN(C(c2cccc(Cl)c2)c2ccccc2Cl)CC1.O=C(O)/C=C\C(=O)O` (centres unmarked) the figure was -34.6%.
Take `COc1ccc(N=Nc2c(C)[nH]c3ccccc23)cc1`: the “hERG current change (%, negative = inhibition) at 1uM” value is recorded as 13.6%.
With `COc1ccc(C(CCN2CCN(c3ccccc3)CC2)c2c(OC)cc(OC)c3c(-c4ccccc4)cc(=O)oc23)cc1` (centres unmarked) the figure was 6.92%; with `COc1ccc(C2=NOC(C3(S(=O)(=O)c4ccccc4)CC(O)C3)C2)cc1` (centres unmarked), 7%; with `CC(C)C1C(c2ccccc2)N(C)C(c2ccccc2)CC1(O)c1ccccc1` (centres unmarked), -7.38%.
With `CS(=O)(=O)c1cccc(-c2nnc(NC(=O)c3ccc(S(=O)(=O)N4CCCC4)cc3)o2)c1` the figure was -1.18%; with `COC(=O)c1sc2nc(C)cc(-c3ccccc3)c2c1N`, 10.5%; with `COc1ccccc1-n1nnnc1SCC(=O)N1CCCC1=O`, -4.23%.
As for `CC(C)(O)C#Cc1ccc(C(=O)N2CCCC(CNS(=O)(=O)c3cccs3)C2)o1` (centres unmarked), the “hERG current change (%, negative = inhibition) at 1uM” value is 6.44%.
With `CN(Cc1ccccc1)C(=O)CCC1CCN(S(=O)(=O)N(C)C)CC1` the figure was 6.65%; with `COC(=O)c1c(NC(C)=O)csc1C`, 17.3%.
With `O=C(O)C(=O)O.Oc1ccccc1N1CCN(CC(O)COC2CCCc3ccccc32)CC1` (centres unmarked) the figure was 3.51%; with `O=S(=O)(NCCc1cn2ccccc2n1)c1cccs1`, 1.39%.
On to `COCCCNC(=O)c1cc(C)nc2ccc(F)cc12`, for which the “hERG current change (%, negative = inhibition) at 1uM” value is recorded as -1.73%.
As for `O=c1c2c(nc3c(-c4cccc5ccccc45)c[nH]n13)CCC2`, the “hERG current change (%, negative = inhibition) at 1uM” value came out at 11.8%.
In the case of `CCc1cccc(C)c1NC(=O)c1ccc2nc(N3CCOCC3)sc2c1`, the “hERG current change (%, negative = inhibition) at 1uM” value stood at 7.49%.
With `CCCOc1ccc(-c2nc(SCc3ccccc3)[nH]c(=O)c2C#N)cc1OC` the figure was 8.97%; with `Cc1c(Cl)cccc1NC(=S)NC(=O)c1cncc(Br)c1`, 19.9%; with `O=S(=O)(NCC1CN(S(=O)(=O)c2c(F)cccc2F)C1)c1ccc2c(c1)OCCO2`, 15.5%.
In the case of `OCCOCCNc1ncnc2sc(-c3ccccc3)cc12` it was -7.21%; in that of `CCOC(=O)C1CCN(C(=O)COC(=O)CSc2ccc([N+](=O)[O-])cc2)CC1`, 3.96%; in that of `Cc1cc(NC(=O)c2noc3c2CCCCC3)nn1Cc1ccc(Cl)cc1`, 3.3%.
In the case of `Cc1nnc(-c2cnn(C)c2N)n1Cc1ccc(Cl)cc1` it was 14.8%.
Regarding `FC(F)(F)c1cnc(N/N=C/c2ccncc2)c(Cl)c1`, the “hERG current change (%, negative = inhibition) at 1uM” value is recorded as 0.979%.
For the molecule `CN(C)/C=C(\C#N)C(=O)Nc1ccc(F)c(Cl)c1`, the “hERG current change (%, negative = inhibition) at 1uM” value is reported as 10.3%.
In the case of `CC1=NN(c2ccccc2)C(=O)/C1=C/c1ccc(-c2ccc(C)c(C(=O)O)c2)o1` it was 12.2%; in that of `CCOc1ccc(OCC)c(NC(=O)c2ccc(CNc3c(N4CCCC4)c(=O)c3=O)cc2)c1`, 9.66%.
In the case of `Cc1cccc(N2C(=O)CC(N3CCN(c4ccccc4)CC3)C2=O)c1` (centres unmarked) it was 11.8%; in that of `COc1ccc(Br)cc1CNC(=O)CCCc1cn(C)c2ccccc12`, 18.6%; in that of `CCc1nn(C(C)C(=O)N2CCN(c3ccccc3)CC2)c(=O)c2cc3occc3n12` (centres unmarked), -4.37%.

These data come from article PMC4336329 (PLoS ONE, 2015).
